# Results as given in the supplement of paper PMC8728848.
# This is one part of the list.
# B1: rCNL (Clitocybe nebularis), B2ZRS9 (protein)
# chain: SITPGTYNITNVAYTNRLIDLTGSNPAENTLIIGHHLNKTPSGYGNQQWTLVQLPHTTIYTMQAVNPQSYVRVRDDNLVDGAALVGSQQPTPVSIESAGNSGQFRIKIPNLGLALTLPSDANSTPIVLGEVDETSTNQLWAFESVSAV
# Key:
# Assay in all cases: glycan array binding signal (z-score within array); higher = stronger binding
# Conditions in all cases: glycan notation: IUPAC condensed, linker removed
# [1] = molecular target: Gal(b1-4)GlcNAc(b1-3)[Gal(b1-4)GlcNAc(b1-6)]Gal(b1-4)GlcNAc
# Method in brief: (§1)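 The binding signal is a Z-score computed within each array and averaged over linkers. Arrays of the same protein sequence at different concentrations or buffers were also averaged together. Data originate from 3228 arrays in the Consortium for Functional Glycomics database, kept only where the protein sequence was available.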
# [2] = molecular target: Gal(b1-4)GlcNAc(b1-3)[Gal(b1-4)GlcNAc(b1-6)]GalNAc
# Method in brief: as §1
# [3] = molecular target: Gal(b1-4)GlcNAc(b1-3)[GlcNAc(b1-6)]Gal(b1-4)GlcNAc
# Method in brief: as §1
# [4] = molecular target: Gal(b1-4)GlcNAc(b1-6)Gal(b1-4)GlcNAc
# Method in brief: as §1
# [5] = molecular target: Gal(b1-4)GlcNAc(b1-6)GalNAc
# Method in brief: as §1
# [6] = molecular target: Gal(b1-4)GlcNAc(b1-6)[Gal(b1-3)]GalNAc
# Method in brief: as §1
# [7] = molecular target: Gal(b1-4)GlcNAc(b1-6)[Gal(b1-4)GlcNAc(b1-3)]GalNAc
# Method in brief: as §1
# Gal(b1-4)GlcNAc6P = molecular target: Gal(b1-4)GlcNAc6P
# Method in brief: as §1
# Gal(b1-6)Gal = molecular target: Gal(b1-6)Gal
# Method in brief: as §1
# Gal3S(b1-3)GalNAc = molecular target: Gal3S(b1-3)GalNAc
# Method in brief: as §1
# Gal3S(b1-3)GlcNAc = molecular target: Gal3S(b1-3)GlcNAc
# Method in brief: as §1
# [8] = molecular target: Gal3S(b1-3)[Fuc(a1-4)]GlcNAc
# Method in brief: as §1
# Gal3S(b1-4)Glc = molecular target: Gal3S(b1-4)Glc
# Method in brief: as §1
# Gal3S(b1-4)Glc6S = molecular target: Gal3S(b1-4)Glc6S
# Method in brief: as §1
# Gal3S(b1-4)GlcNAc = molecular target: Gal3S(b1-4)GlcNAc
# Method in brief: as §1
# Gal3S(b1-4)GlcNAc6S = molecular target: Gal3S(b1-4)GlcNAc6S
# Method in brief: as §1
# [9] = molecular target: Gal3S(b1-4)[Fuc(a1-3)]Glc
# Method in brief: as §1
# [10] = molecular target: Gal3S(b1-4)[Fuc(a1-3)]Glc6S
# Method in brief: as §1
# [11] = molecular target: Gal3S(b1-4)[Fuc(a1-3)]GlcNAc
# Method in brief: as §1
# [12] = molecular target: Gal3S(b1-4)[Fuc(a1-3)]GlcNAc6S
# Method in brief: as §1
# Gal3S4S(b1-4)GlcNAc = molecular target: Gal3S4S(b1-4)GlcNAc
# Method in brief: as §1
# Gal3S6S(b1-4)GlcNAc = molecular target: Gal3S6S(b1-4)GlcNAc
# Method in brief: as §1
# Gal3S6S(b1-4)GlcNAc6S = molecular target: Gal3S6S(b1-4)GlcNAc6S
# Method in brief: as §1
# Gal4S(b1-4)GlcNAc = molecular target: Gal4S(b1-4)GlcNAc
# Method in brief: as §1
# Gal4S6S(b1-4)GlcNAc = molecular target: Gal4S6S(b1-4)GlcNAc
# Method in brief: as §1
# Gal6P(b1-4)GlcNAc = molecular target: Gal6P(b1-4)GlcNAc
# Method in brief: as §1
# Gal6S(b1-3)GlcNAc = molecular target: Gal6S(b1-3)GlcNAc
# Method in brief: as §1
# Gal6S(b1-3)GlcNAc6S = molecular target: Gal6S(b1-3)GlcNAc6S
# Method in brief: as §1
# Gal6S(b1-4)Glc = molecular target: Gal6S(b1-4)Glc
# Method in brief: as §1
# Gal6S(b1-4)Glc6S = molecular target: Gal6S(b1-4)Glc6S
# Method in brief: as §1
# Gal6S(b1-4)GlcNAc = molecular target: Gal6S(b1-4)GlcNAc
# Method in brief: as §1
# Gal6S(b1-4)GlcNAc6S = molecular target: Gal6S(b1-4)GlcNAc6S
# Method in brief: as §1
# GalNAc(a1-3)Gal = molecular target: GalNAc(a1-3)Gal
# Method in brief: as §1
# GalNAc(a1-3)GalNAc = molecular target: GalNAc(a1-3)GalNAc
# Method in brief: as §1
# [13] = molecular target: GalNAc(a1-3)GalNAc(a1-3)Gal(a1-4)Gal(b1-4)GlcNAc
# Method in brief: as §1
# [14] = molecular target: GalNAc(a1-3)GalNAc(b1-3)Gal(a1-4)Gal(b1-4)Glc
# Method in brief: as §1
# [15] = molecular target: GalNAc(a1-3)GalNAc(b1-3)Gal(a1-4)Gal(b1-4)GlcNAc
# Method in brief: as §1
# GalNAc(b1-3)Gal = molecular target: GalNAc(b1-3)Gal
# Method in brief: as §1
# [16] = molecular target: GalNAc(b1-3)Gal(a1-4)Gal(b1-4)GlcNAc
# Method in brief: as §1
# [17] = molecular target: GalNAc(b1-3)Gal(a1-4)Gal(b1-4)GlcNAc(b1-3)Gal(b1-4)Glc
# Method in brief: as §1
# [18] = molecular target: GalNAc(b1-3)Gal(a1-6)Gal(b1-4)Glc
# Method in brief: as §1
# GalNAc(b1-3)GalNAc = molecular target: GalNAc(b1-3)GalNAc
# Method in brief: as §1
# GalNAc(b1-3)GlcNAc = molecular target: GalNAc(b1-3)GlcNAc
# Method in brief: as §1
# GalNAc(b1-4)Gal(b1-4)Glc = molecular target: GalNAc(b1-4)Gal(b1-4)Glc
# Method in brief: as §1
# GalNAc(b1-4)GlcNAc = molecular target: GalNAc(b1-4)GlcNAc
# Method in brief: as §1
binder,measurement,setting,value
B1,glycan array binding signal (z-score),[1],-0.1
same,glycan array binding signal (z-score),[2],-0.001
same,glycan array binding signal (z-score),[3],-0.189
same,glycan array binding signal (z-score),[4],-0.257
same,glycan array binding signal (z-score),[5],0.128
same,glycan array binding signal (z-score),[6],-0.272
same,glycan array binding signal (z-score),[7],-0.199
same,glycan array binding signal (z-score),Gal(b1-4)GlcNAc6P,-0.224
same,glycan array binding signal (z-score),Gal(b1-6)Gal,-0.211
same,glycan array binding signal (z-score),Gal3S(b1-3)GalNAc,-0.3
same,glycan array binding signal (z-score),Gal3S(b1-3)GlcNAc,-0.176
same,glycan array binding signal (z-score),[8],0.743
same,glycan array binding signal (z-score),Gal3S(b1-4)Glc,-0.28
same,glycan array binding signal (z-score),Gal3S(b1-4)Glc6S,-0.261
same,glycan array binding signal (z-score),Gal3S(b1-4)GlcNAc,-0.174
same,glycan array binding signal (z-score),Gal3S(b1-4)GlcNAc6S,0.003
same,glycan array binding signal (z-score),[9],-0.354
same,glycan array binding signal (z-score),[10],-0.277
same,glycan array binding signal (z-score),[11],-0.227
same,glycan array binding signal (z-score),[12],-0.22
same,glycan array binding signal (z-score),Gal3S4S(b1-4)GlcNAc,-0.218
same,glycan array binding signal (z-score),Gal3S6S(b1-4)GlcNAc,-0.299
same,glycan array binding signal (z-score),Gal3S6S(b1-4)GlcNAc6S,-0.283
same,glycan array binding signal (z-score),Gal4S(b1-4)GlcNAc,-0.298
same,glycan array binding signal (z-score),Gal4S6S(b1-4)GlcNAc,-0.304
same,glycan array binding signal (z-score),Gal6P(b1-4)GlcNAc,-0.219
same,glycan array binding signal (z-score),Gal6S(b1-3)GlcNAc,-0.224
same,glycan array binding signal (z-score),Gal6S(b1-3)GlcNAc6S,-0.215
same,glycan array binding signal (z-score),Gal6S(b1-4)Glc,-0.225
same,glycan array binding signal (z-score),Gal6S(b1-4)Glc6S,-0.282
same,glycan array binding signal (z-score),Gal6S(b1-4)GlcNAc,-0.301
same,glycan array binding signal (z-score),Gal6S(b1-4)GlcNAc6S,0.207
same,glycan array binding signal (z-score),GalNAc(a1-3)Gal,1.42
same,glycan array binding signal (z-score),GalNAc(a1-3)GalNAc,0.148
same,glycan array binding signal (z-score),[13],0.649
same,glycan array binding signal (z-score),[14],-0.001
same,glycan array binding signal (z-score),[15],0.16
same,glycan array binding signal (z-score),GalNAc(b1-3)Gal,1.25
same,glycan array binding signal (z-score),[16],1.05
same,glycan array binding signal (z-score),[17],0.825
same,glycan array binding signal (z-score),[18],1.36
same,glycan array binding signal (z-score),GalNAc(b1-3)GalNAc,-0.309
same,glycan array binding signal (z-score),GalNAc(b1-3)GlcNAc,4.24
same,glycan array binding signal (z-score),GalNAc(b1-4)Gal(b1-4)Glc,-0.217
same,glycan array binding signal (z-score),GalNAc(b1-4)GlcNAc,6.23
